# Test results published in PubChem BioAssay AID445 (National Center for Advancing Translational Sciences (NCATS), 2006).
# The whole screen tested about 110,000 compounds, of which about 40 (0.04%) were called active. The inconclusive results got no clear call from the source; some entries with a clear call stand among them for comparison. The call rests on the fitted dose curve; in most records, active means well fitted curve in the direction sought with a large enough effect in the signal ratio (not every such curve was filed as active); inconclusive means small, poorly fitted or top-dose-only effect, or a change in a side signal; inactive means flat fitted curve, though single readings scatter; the % refers to the signal ratio. Potencies of inconclusive entries are doubtful fits and often do not repeat.
# Assay: IkB Signaling;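 on IkBa stabilization activation: 0% = basal untreated cells and 100% = reference inhibitor full response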
# Details: ABC-DLBCL IkBa-CBG/CBR dual luciferase ratio (green luciferase fused to IkBa over red control in OCI-Ly3 lymphoma cells), 4 h; IkBa stabilization activation: at 57.1 µM (top of the series), scaled: untreated 0%, proteasome inhibitor 100% unless noted
# Method in brief: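 Curves were fitted separately to fusion (green), unfused (red) and ratio luminescence, then classed by r2, magnitude and activity. Cells: OCI-Ly3, 4 h compound plus doxycycline at 37C; 10 uM MG-132 defined full response.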
# Potency means the concentration at half of the fitted maximal effect.
Compound,IkBa stabilization activation,Potency
CCc1ccccc1NC(=O)Nc1cc(C(=O)NCc2cccc(F)c2)ccc1N1CCCC1,inactive: 1.29%,
O=C(Cn1ncn2nc(-c3cccs3)cc2c1=O)NCc1ccc(Cl)cc1,inactive: -1.96%,
Cc1oc(-c2cccc(Cl)c2)nc1CN1CCCC(C(=O)NCCc2ccc(Cl)cc2)C1 (configuration not stated),inconclusive: 0.937% [signal inhibitor],
O=C(Nc1ccc2c(c1)OCCO2)C1CCN(S(=O)(=O)c2ccc(Br)s2)CC1,inconclusive: 5.56% [signal inhibitor],
O=P(O)(O)c1ccccc1OCCOCCOc1ccccc1P(=O)(O)O,inactive: -1.28%,
CC(=O)Nc1cc(C(=O)NCc2ccc(C)cc2)ccc1S(=O)(=O)c1ccc(Cl)cc1,inconclusive: -1.21% [signal inhibitor],
CCOC(=O)CN1C(C(=O)c2ccccc2)=C(OC(=O)C(C)(C)C)c2ccccc2S1(=O)=O,inconclusive: -0.0075% [signal inhibitor],
Cc1cccc(-n2nnc(C(=O)NC3CCCc4ccccc43)c2N)c1 (configuration not stated),inconclusive: 6.64% [signal inhibitor],
Cc1ccc(OCC(=O)NCc2ccco2)cc1C,inconclusive: 19% [signal inhibitor],
N#CC1=C(N)SC(N)=C(C#N)C1c1c(Cl)cccc1Cl,,"inconclusive: 31.6 µM [rising, partial curve]"
Cc1cc(Br)ccc1NC(=O)C1CCCN(S(=O)(=O)c2cccc3nonc23)C1 (configuration not stated),inconclusive: -2.53% [signal inhibitor],
COc1ccccc1NC(=O)CSc1nnc(NC(=O)NC2CCCCC2)s1,inconclusive: 6.87% [signal inhibitor],
COc1ccccc1/C=C/c1nc(C#N)c(N2CCN(C)CC2)o1,inconclusive: -1.98% [signal inhibitor],
COc1ccccc1-c1ccc2ncnc(N(C)Cc3ccco3)c2c1,"inactive: 11% [at 11.4 µM, scaled: untreated 0%, proteasome inhibitor 100%]",
COc1ccc(C(=O)N2CCC(c3nc4ccccc4s3)CC2)cc1Cl,inconclusive: 0.837% [signal inhibitor],
CC(=O)[C@H](CC(C)C)NC(=O)[C@@H](CC(C)C)NC(=O)[C@H](CC(C)C)NC(=O)OCc1ccccc1,,"inconclusive: 2 µM [rising, full curve]"
CCc1ccc(NCc2cc3cc4c(cc3n(CC(=O)Nc3ccccc3OC)c2=O)OCCO4)cc1,inconclusive: 2.71% [signal inhibitor],
O=C(CSc1n[nH]c(-c2ccccc2)n1)c1ccccc1,inactive: 0.938%,
COc1cc(C(=O)Nc2ccc3c(c2)OCCO3)ccc1OC(F)F,inconclusive: 1.41% [signal inhibitor],
Cc1ccc(S(=O)(=O)CCC(=O)Nc2ccc(OC(F)(F)F)cc2)cc1,inconclusive: -1.9% [signal inhibitor],
CCC(Sc1nc2ccncc2[nH]1)C(=O)Nc1cc(Cl)ccc1C (configuration not stated),inconclusive: 0.0126% [signal inhibitor],
CC1(C)CC(=O)C=C(Nc2cc(-c3ccccc3)[nH]n2)C1,inconclusive: 16% [signal inhibitor],
C[C@H]1CN(CCO)CCN1c1ccccc1,"inactive: 0.965% [at 11.4 µM, scaled: untreated 0%, proteasome inhibitor 100%]",

Compound,IkBa stabilization activation,Potency
O=C(Nc1ccccc1)N(Cc1c[nH]c2ccccc12)C1CCCCCC1,inconclusive: 2% [signal inhibitor],
Cn1c(SCc2nc3ccccc3c(=O)[nH]2)nnc1-c1ccco1,inactive: 0.014%,
O=C1CN(CC(=O)N2CCOCC2)c2ccccc2O1,,"inconclusive: 7.94 µM [signal inhibitor, partial curve]"
Cc1cccc(OCc2nc(CC(=O)Nc3ccc(C)cc3C)cs2)c1,inconclusive: 1.9% [signal inhibitor],
Cc1cccc(N2CCN(C(=O)c3cnn(-c4ccccc4Cl)c3C3CCN(C(=O)OC(C)(C)C)CC3)CC2C)c1 (configuration not stated),inconclusive: 2.65% [signal inhibitor],
Cc1ccc(-n2nc3ccc(N)cc3n2)cc1,inactive: 12.3%,
CCc1ccc(C2c3c(oc4ccc(F)cc4c3=O)C(=O)N2CCc2ccc(OC)cc2)cc1 (configuration not stated),inconclusive: 1.4% [signal inhibitor],
COc1ccc(-c2cc(C(=O)NC(C)c3ccccc3)c3cc(C(C)C)ccc3n2)cc1 (configuration not stated),inactive: -1.45%,
CCOC(=O)c1c(N)n(CCOC(=O)c2cccs2)c2nc3ccccc3nc12,inconclusive: 0.192% [signal inhibitor],
Cc1ccc(CNC(=O)Cn2c(=O)ccc3cc(S(=O)(=O)N4CCC(C)CC4)ccc32)cc1,inconclusive: -0.936% [signal inhibitor],
CCOC(=O)c1c(NC(=O)c2cc(OCC)c(OCC)c(OCC)c2)sc2c1CCCCC2,inactive: 1.88%,
O=C(Nc1ccccc1C(F)(F)F)c1cc(-c2ccc3c(c2)OCCO3)on1,inconclusive: 2.01% [signal inhibitor],
CCN(CC)CCNC(=O)C(=O)NCC(c1cccnc1)N1CCN(c2ccc(F)cc2)CC1 (configuration not stated),inconclusive: 4.9% [signal inhibitor],
COc1ccc2cc3cc(C(=O)Nc4cc(C)c(Cl)cc4OC)oc3nc2c1,inconclusive: 1.74% [signal inhibitor],
CCc1cccc(CC)c1NC(=O)C1CCC(CNS(=O)(=O)c2cccc3nsnc23)CC1 (configuration not stated),inconclusive: 2.36% [signal inhibitor],
CC(=O)c1cccc(NS(=O)(=O)c2cc(-c3onc(C)c3C)ccc2C)c1,inconclusive: 13% [signal inhibitor],
Cc1sc2c(c1C)c(=O)n(-c1ccc(Cl)cc1)c(=O)n2Cc1cc(=O)n2cc(Br)ccc2n1,inconclusive: -1.88% [signal inhibitor],
CCOC(=O)c1ccc(NC(=O)c2cccc(S(=O)(=O)N3CCOCC3)c2)cc1,inconclusive: -4.76% [signal inhibitor],
CC(C)c1ccc(NC(=O)CN2C(=O)CCc3cc(S(=O)(=O)N4CCOCC4)ccc32)cc1,inconclusive: 13.4% [signal inhibitor],
COc1ccc(S(=O)(=O)NCCc2sc(-c3cccc(F)c3)nc2C)cc1,inconclusive: 1.58% [signal inhibitor],
CC(C)c1ccc(NC(=O)c2ccc(F)c(S(=O)(=O)N3CCN(c4ccccc4F)CC3)c2)cc1,inconclusive: 0.0485% [signal inhibitor],
COc1ccccc1N1CCN(C(=O)CSc2nnc3n2C(C)(C)Cc2ccccc2-3)CC1,inconclusive: 0.916% [signal inhibitor],
Cc1ccc(C(=O)/C=C/c2cn(CC(O)CN3CCCCCC3)c3ccccc23)cc1 (configuration not stated),inconclusive: -1.01% [signal inhibitor],

Compound,IkBa stabilization activation,Potency
c1cnc(N2CCN(Cc3ccc4c(c3)OCO4)CC2)nc1,inactive,
CCC1=C(c2ccc(C)cc2)S(=O)(=O)N=C1N1CCC(C(=O)NCc2ccc(C)cc2)CC1,inconclusive: -0.567% [signal inhibitor],
CCCSCCCNC(=O)CN1C(=O)CCn2nc(-c3cn(C)c4ccccc34)cc21,inconclusive: -2.55% [signal inhibitor],
COc1cc(NS(=O)(=O)c2ccc(NC(=O)c3ccc(OC)c(Br)c3)cc2)nc(OC)n1,inconclusive: 14.1% [signal inhibitor],
O=C(c1csnn1)N1CCC2(CC1)CN(C(c1ccccc1)c1ccccc1)C2,"inactive: 0.584% [at 11.4 µM, scaled: untreated 0%, proteasome inhibitor 100%]",
Cn1c(=O)c2c(n3c4ccccc4nc13)NC(=O)CC2c1cccc(Cl)c1 (configuration not stated),inconclusive: -0.916% [signal inhibitor],
Cc1ccc(-c2cc(C(=O)Nc3c(C(=O)c4ccc(C)c(F)c4)oc4ccccc34)no2)cc1,inactive: 1.1%,
Cc1ccc(C)c(N2CCN(C(=O)C3CCCN(S(=O)(=O)c4cccc5nonc45)C3)CC2)c1 (configuration not stated),inconclusive: 15.2% [signal inhibitor],
CCc1ccc(O)c(N=Cc2cccc(C)c2O)c1,,"inconclusive: 15.8 µM [signal inhibitor, partial curve]"
O=C(Cl)c1cccc([N+](=O)[O-])c1,inactive: 0.955%,
COc1ccc(Cn2nnnc2C(c2ccc(N(C)C)cc2)N2CCC(C)CC2)cc1 (configuration not stated),inactive: 1.31%,
CC(C)(C)NS(=O)(=O)c1ccc2nc(NC(=O)Cc3cccs3)sc2c1,inconclusive: 2.8% [signal inhibitor],
C1=Nc2c(Nc3ccccc3)ncnc2Oc2ccccc21,inconclusive: -0.000321% [signal inhibitor],
CCOc1ccc2nc(NC(=O)c3ccoc3C)sc2c1,inconclusive: 1.63% [signal inhibitor],
COC(=O)c1cccc(Nc2nc3ccccc3nc2C)c1,inactive: -3.89%,
CC(=O)Nc1cccc(NC(=O)Cc2csc(COc3cccc(C)c3)n2)c1,inconclusive: -0.529% [signal inhibitor],
Cc1nn(CCC(=O)O)c2nc(-c3cccnc3)cc(C(F)(F)F)c12,inactive: -0.424%,
COc1ccccc1N1CCN(S(=O)(=O)c2ccc(-n3cnnn3)cc2)CC1,inconclusive: 1.6% [signal inhibitor],
CCOC(=O)N1CCc2c(sc3c2c(=O)n(-c2ccc(CC)cc2)c(=O)n3Cc2cccc(OC)c2)C1,inconclusive: 0.877% [signal inhibitor],
CCOc1ccc(C(=O)Nc2ccc3c(c2)N(C(C)=O)CCC3)cc1OCC,inconclusive: 7.41% [signal inhibitor],
COc1ccc(NS(=O)(=O)c2ccc3c(c2)NC(=O)CCS3)c(OC)c1,inactive: -0.124%,
